# Laboratory results as given in the supplement of paper PMC4604168 (melanoma cell lines).
# The list shows a part of the results. Single values are uncertain, as repeats are few or missing.
# Tested on: COLO792
# Experiment: cell count relative to DMSO control; melanoma cells; higher = more viable cells
# Settings: library dose: low library concentration; 72 h
# 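Further: cell number obtained by counting DAPI-stained nuclei in high-throughput microscope images with image analysis software, screen run in 1,536-well plates.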
row,Compound,cell count [%]
1,"CNC(=O)c1cc(Oc2ccc(NC(=O)Nc3ccc(Cl)c(C(F)(F)F)c3)cc2)ccn1 [sorafenib] + N#Cc1c(O)c2c(-c3ccc(-c4ccccc4O)cc3)csc2[nH]c1=O [A769662] (first compound 0.4 µM, partner dose 2 µM)",104
2,"CS(=O)(=O)CCNCc1ccc(-c2ccc3ncnc(Nc4ccc(OCc5cccc(F)c5)c(Cl)c4)c3c2)o1 [lapatinib] + Oc1cc(-c2nc(-c3ccccc3)[nH]c2-c2ccncc2)ccc1Cl [L779450] (first compound 0.8 µM, partner dose 0.2 µM)",98.4
3,"CN1CCN(c2ccc3nc(-c4c(N)c5c(F)cccc5[nH]c4=O)[nH]c3c2)CC1 [Dovitinib] + O=C(O)C(=O)Nc1sc2c(c1C(=O)O)CCNC2 [TCS401] (first compound 0.1 µM, partner dose 1.66667 µM)",116
4,"C=CCNC1=C2C[C@@H](C)C[C@H](OC)[C@H](O)[C@@H](C)/C=C(\C)[C@H](OC(N)=O)[C@@H](OC)/C=C\C=C(/C)C(=O)NC(=CC1=O)C2=O [Tanespimycin] + COc1ccc(COc2ccc(Cc3cnc(N)nc3N)cc2OC)cc1 [GW2580] (first compound 0.002 µM, partner dose 1 µM)",94.4
5,"CNC(=O)c1cc(Oc2ccc(NC(=O)Nc3ccc(Cl)c(C(F)(F)F)c3)cc2)ccn1 [sorafenib] + COc1ccc(-c2ccc3c(N4CCOCC4)nc(N4C[C@@H](C)O[C@@H](C)C4)nc3n2)cc1CO [KU0063794] (first compound 0.4 µM, partner dose 0.02 µM)",106
6,"CNC(=O)c1cc(Oc2ccc(NC(=O)Nc3ccc(Cl)c(C(F)(F)F)c3)cc2)ccn1 [sorafenib] + COc1ccc2c(c1)CCC1C2CCC2(C)C(NCCCCCCN3C(=O)C=CC3=O)CCC12 [U73122] (first compound 0.4 µM, partner dose 0.4 µM)",117
7,"C[C@@H](Oc1cc(-c2cnn(C3CCNCC3)c2)cnc1N)c1c(Cl)ccc(F)c1Cl [Crizotinib] + O=c1cc(-c2cccc3c2Sc2ccccc2S3)oc(N2CCOCC2)c1 [KU55933] (first compound 0.2 µM, partner dose 1 µM)",131
8,"C[C@@H](Oc1cc(-c2cnn(C3CCNCC3)c2)cnc1N)c1c(Cl)ccc(F)c1Cl [Crizotinib] + COC(=O)c1sccc1S(=O)(=O)Nc1ccc(Nc2ccccc2)cc1OC [GSK0660] (first compound 0.2 µM, partner dose 1 µM)",87.6
9,"CS(=O)(=O)CCNCc1ccc(-c2ccc3ncnc(Nc4ccc(OCc5cccc(F)c5)c(Cl)c4)c3c2)o1 [lapatinib] + O=C(O)C(=O)Nc1sc2c(c1C(=O)O)CCNC2 [TCS401] (first compound 0.8 µM, partner dose 1.66667 µM)",91.5
